{
  "source": "PubChem BioAssay AID1460",
  "about": "(National Center for Advancing Translational Sciences (NCATS), 2008)",
  "note": "Screen size: about 270,000 compounds; about 5,800 (2.1%) were called active. The shares of active, inactive and inconclusive entries below differ from those in the screen. Calls come from the whole dose curve; as a rule, active = well fitted inhibition curve with a large enough effect; inconclusive = small, poorly fitted or top-dose-only effect; inactive = flat fitted curve, though single readings scatter. Potencies of inconclusive entries are doubtful fits and often do not repeat. % is set by controls: 0 for no effect and ±100 for the full control effect; potency is the fitted concentration of half-maximal effect; tags give direction and shape of the fitted curve.",
  "data": [
    {"target": "Microtubule-associated protein tau (Homo sapiens) (UniProt P10636)", "sequence (P10636 whole entry, looked up, the tested form may be a part)": "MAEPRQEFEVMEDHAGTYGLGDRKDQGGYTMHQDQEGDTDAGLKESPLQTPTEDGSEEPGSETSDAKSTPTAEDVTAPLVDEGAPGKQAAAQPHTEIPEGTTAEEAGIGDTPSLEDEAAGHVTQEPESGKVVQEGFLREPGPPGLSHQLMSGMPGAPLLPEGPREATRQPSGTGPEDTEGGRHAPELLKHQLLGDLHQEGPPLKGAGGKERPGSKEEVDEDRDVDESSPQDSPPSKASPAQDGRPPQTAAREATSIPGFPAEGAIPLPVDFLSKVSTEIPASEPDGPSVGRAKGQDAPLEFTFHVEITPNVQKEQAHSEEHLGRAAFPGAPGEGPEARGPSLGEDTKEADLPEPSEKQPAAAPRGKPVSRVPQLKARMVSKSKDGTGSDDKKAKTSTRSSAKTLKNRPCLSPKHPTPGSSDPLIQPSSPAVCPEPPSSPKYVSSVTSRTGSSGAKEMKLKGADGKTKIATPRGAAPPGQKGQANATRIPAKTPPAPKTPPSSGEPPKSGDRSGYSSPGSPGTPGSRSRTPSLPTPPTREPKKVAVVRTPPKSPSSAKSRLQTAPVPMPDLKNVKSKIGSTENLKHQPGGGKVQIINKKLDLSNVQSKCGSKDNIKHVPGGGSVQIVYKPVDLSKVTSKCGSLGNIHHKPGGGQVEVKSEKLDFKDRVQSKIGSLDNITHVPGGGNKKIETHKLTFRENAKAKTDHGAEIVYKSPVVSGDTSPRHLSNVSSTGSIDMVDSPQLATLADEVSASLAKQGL", "assay": "qHTS for Inhibitors of Tau Fibril Formation, Thioflavin T Binding; note: nearly all actives have a fitted effect of over 55% in size", "conditions": "recombinant tau K18 P301L (four-repeat tau fragment), heparin-induced fibrillization, ThT fluorescence; series mostly up to 57.4 µM", "in_short": "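Tau K18 P301L fragment (15 uM unlabeled plus 0.24 uM Alexa 594-labeled) in 100 mM sodium acetate pH 7 with compound, fibrillization induced by 20 uM heparin for 6 hr at 37 C. Thioflavin T (30 uM) added, fluorescence read after 1 hr (ex 450, em 510 nm).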", "values": [
      {"molecule": "CN(C)CCNC(=O)c1ccc(-n2c(-c3ccccc3)cc3c2CCCCC3)cc1", "Potency": "inactive"},
      {"molecule": "COCCN1Cc2cc3cc(C)ccc3nc2SC1=Nc1ccc(OC)cc1", "Potency": "inconclusive: 12.6 µM [inhibitor, partial curve]"},
      {"molecule": "O=C(Nc1ccc2c(c1)OCCO2)Nc1ccc2c(c1)OCO2", "Potency": "inconclusive: 10 µM [inhibitor, partial curve]"},
      {"molecule": "CCN1CCc2c(sc(NC(=O)c3ccc(S(=O)(=O)N(CCOC)CCOC)cc3)c2C(N)=O)C1", "Potency": "inactive"},
      {"molecule": "Cc1ccc(-c2nc3cc(NC(=O)c4cc5ccccc5o4)ccc3o2)cc1Cl", "Potency": "inconclusive: 0.631 µM [inhibitor, full curve]"},
      {"molecule": "COc1cccc(-n2nnc3c(=O)n(Cc4ccc(C)cc4)cnc32)c1", "Potency": "inactive"},
      {"molecule": "CCn1cnc2sc(C(=O)Nc3ccc4c(c3)OCO4)c(C)c2c1=O", "Potency": "inconclusive: 11.2 µM [inhibitor, partial curve]"},
      {"molecule": "COc1cccc(CNc2nc3ccccc3c3nc(-c4cccc(C)c4)nn23)c1", "Potency": "inactive"},
      {"molecule": "COc1ccc(CCNC(=O)/C=C/c2ccc(C)cc2)cc1OC", "Potency": "inconclusive: 15.8 µM [inhibitor, partial curve, poor fit]"},
      {"molecule": "Cc1cc(F)ccc1OC1C=CC(c2ccc3c(c2)OCO3)OC1CO", "note": "(stereo not drawn)", "activity, negative = inhibition": "inactive: -14.7% [at 11.5 µM]"},
      {"molecule": "Cc1cccc(-c2nc(CCNC(=O)COc3ccccc3)cs2)c1", "Potency": "inactive"},
      {"molecule": "O=C(CSc1nccc(=O)[nH]1)c1cc2ccccc2o1", "Potency": "inconclusive: 25.1 µM [inhibitor, partial curve, poor fit]"},
      {"molecule": "Cc1ccc(CN(Cc2ccco2)C(=O)c2ccc(Cl)cc2Cl)cc1", "Potency": "inconclusive: 10 µM [inhibitor, partial curve]"},
      {"molecule": "Cc1csc2nc(COC(=O)c3cccc(NC(=O)c4cccc(Cl)c4)c3)cc(=O)n12", "Potency": "inconclusive: 0.501 µM [inhibitor, full curve]"},
      {"molecule": "C/C(N)=C(/C#N)C(=O)CSc1nc2ccccc2c(=O)n1Cc1ccc(C)cc1", "Potency": "inconclusive: 20 µM [inhibitor, single point]"},
      {"molecule": "CCC(=O)Nc1ccc2nc(C3CC3)n(Cc3ccc(C(C)(C)C)cc3)c(=O)c2c1", "Potency": "inactive"},
      {"molecule": "COc1cc(/C=N/NS(=O)(=O)c2ccc(C)cc2)ccc1OCc1cccc(C(=O)O)c1", "Potency": "inactive"},
      {"molecule": "COc1ccc(C(=O)Nc2cccc(-c3cn4ccsc4n3)c2)c(OC)c1", "Potency": "inconclusive: 39.8 µM [activator, single point]"},
      {"molecule": "O=C(Nc1cc2cc([N+](=O)[O-])ccc2oc1=O)c1cccs1", "Potency": "inactive"},
      {"molecule": "O=C(CCN1C(=O)c2ccc([N+](=O)[O-])cc2C1=O)Nc1cccc(O)c1", "Potency": "inactive"},
      {"molecule": "Cc1cccc(N2CCN(C(=O)CN3C(=O)COc4ccc(S(=O)(=O)N5CCC(C)CC5)cc43)CC2)c1C", "Potency": "inactive"},
      {"molecule": "O=[N+]([O-])c1ccccc1/C=N/N1CCN(c2ccccn2)CC1", "Potency": "inconclusive: 5.01 µM [inhibitor, partial curve]"},
      {"molecule": "CCNc1ccc(C(=O)OCC)cc1NC(=O)c1cccc(N(C)C)c1", "Potency": "inconclusive: 14.1 µM [inhibitor, partial curve]"},
      {"molecule": "Cc1ccsc1/C=N/N1CCN(c2ccccn2)CC1", "Potency": "inconclusive: 5.62 µM [inhibitor, partial curve]"},
      {"molecule": "O=C(CCc1nc(-c2ccccc2)no1)NCC1CCCO1", "note": "(stereo not drawn)", "Potency": "inconclusive: 35.5 µM [inhibitor, single point]"},
      {"molecule": "CCCC(=O)OCC(=O)Nc1ccc(N=Nc2ccccc2)cc1", "Potency": "active: 10 µM"},
      {"molecule": "C=CCOc1c(Br)cc(CNc2nccs2)cc1OC", "Potency": "inactive"},
      {"molecule": "COc1ccc2c(c1)NC(c1ccc(N(C)C)cc1)c1cccn1-2", "note": "(stereo not drawn)", "Potency": "inconclusive: 14.1 µM [inhibitor, partial curve]"},
      {"molecule": "Cc1oc(-c2ccccc2F)nc1CS(=O)CC(=O)NCc1cccs1", "note": "(stereo not drawn)", "Potency": "inconclusive: 35.5 µM [inhibitor, single point]"},
      {"molecule": "CC(=O)[C@@H]1[C@@H]2C(=O)N(C3CCCCC3)C(=O)[C@@H]2C2c3ccccc3C=CN21", "note": "(stereo partly drawn)", "Potency": "inconclusive: 17.8 µM [inhibitor, partial curve]"},
      {"molecule": "CCOC(=O)c1c(NC(=S)Nc2ccccc2)sc2c1CCN(CC)C2", "Potency": "inconclusive: 15.8 µM [inhibitor, partial curve]"},
      {"molecule": "COc1ccc(/C=N/c2c(-c3ccc(OC)cc3)nc3n2CCS3)cc1", "Potency": "active: 14.1 µM"},
      {"molecule": "Cc1nc2ccn(Cc3cccs3)c(=O)c2cc1C(=O)NCc1ccc(Br)cc1", "Potency": "inconclusive: 22.4 µM [inhibitor, single point]"},
      {"molecule": "C/C(=N\\NC(=S)Nc1cccc(C)c1)c1cccc(N)c1", "Potency": "inconclusive: 8.91 µM [inhibitor, partial curve]"},
      {"molecule": "Cc1ccc(NC(=O)c2ccccc2[N+](=O)[O-])nc1", "Potency": "inactive"},
      {"molecule": "S=C(Nc1ccc2nccnc2c1)N1CCOCC1", "Potency": "active: 25.1 µM"},
      {"molecule": "Oc1ccc(/C=N/NC(=S)NC2CC3CCC2C3)cc1", "note": "(stereo not drawn)", "Potency": "inactive"},
      {"molecule": "Cc1ccc(-n2c(C)cc(C3=NNC(=NC4CC4)SC3)c2C)cc1C", "Potency": "inconclusive: 22.4 µM [inhibitor, partial curve]"},
      {"molecule": "CC(C)(C)NC(=O)/C(=C/c1ccco1)c1ccccc1", "Potency": "inactive"},
      {"molecule": "CCOC(=O)c1cnc2c(cnn2C)c1NCCC#N", "Potency": "inactive"},
      {"molecule": "Cc1ccc2nc(NC(=O)COC(=O)CSc3nc(C)cc(C)n3)sc2c1", "Potency": "inactive"},
      {"molecule": "Cc1ccc2sc(N(Cc3cccnc3)C(=O)Cc3ccccc3)nc2c1C", "Potency": "inactive"},
      {"molecule": "Cc1oc(-c2ccccc2Cl)nc1CSCC(=O)N1CCCC1", "Potency": "inactive"},
      {"molecule": "Cc1ccc(-c2cnc(NC(=O)c3cccc(Br)c3)s2)c(C)c1", "Potency": "inconclusive: 10 µM [inhibitor, partial curve]"},
      {"molecule": "CCC(=O)Oc1cc(C(C)(C)C)cc2cc(-c3nc(-c4ccc(OC)cc4OC)no3)c(=O)oc12", "Potency": "inconclusive: 14.1 µM [inhibitor, partial curve]"},
      {"molecule": "O=C(NC(Nc1ncc(S(=O)(=O)c2ccc([N+](=O)[O-])cc2)s1)(C(F)(F)F)C(F)(F)F)c1ccc(Cl)cc1", "Potency": "inconclusive: 28.2 µM [inhibitor, single point]"},
      {"molecule": "O=C(O)CCCC(=O)Nc1ccc(N2CCCC2)cc1", "Potency": "inactive"},
      {"molecule": "CCOc1ccc(NC(=O)c2cc3cc(C)ccc3n2C)cc1", "Potency": "inconclusive: 1.26 µM [inhibitor, full curve, poor fit]"}
    ]}
  ]
}
